Reference: a compilation of properties of binary mixtures (doi:10.1016/j.jtice.2014.04.012)
Some of these densities may be calculated back from excess volumes.

Experiment: xn = mol fraction of the nth substance listed
Details: 100 kPa

CCCC[n+]1ccn(C)c1.F[B-](F)(F)F + CN(C)C=O
mass density [kg/m3]
Details	x1 = 0.1008	x1 = 0.2015	x1 = 0.3022	x1 = 0.4024	x1 = 0.502	x1 = 0.6024	x1 = 0.7019	x1 = 0.8015	x1 = 0.9002	x1 = 1
303.15 K	–	1048.1	1082.2	1109	1130.7	1148.9	1164	1177.1	1188.2	1198
313.15 K	994	1039.6	1074.1	1101.2	1123.1	1141.4	1156.6	–	1181.1	–
323.15 K	985.1	1031.2	–	1093.3	1115.4	1133.9	–	1162.6	1173.9	1183.9
333.15 K	976.2	1022.8	1057.9	1085.5	1107.8	1126.5	–	1155.4	1166.9	1176.9

CN(C)C=O + CCCC[n+]1ccn(C)c1.F[B-](F)(F)F
x2 = 0
Details	mass density [kg/m3]
303.15 K	939.1
313.15 K	929.6
323.15 K	919.9
